Values joined by “and” are separate entries in the source; they are usually repeats but may differ in a detail not shown here. Equal values may be shown once.
System: LSL-KrasG12D/+; LSL-Trp53R172H/+; Pdx1-Cre (KPC) mouse model of pancreatic cancer
Assay: Survival of KPC mice with pancreatic cancer from start of treatment (Kaplan-Meier, Log-Rank)
Type: in vivo
Excerpt: • Test antibody and drug Anti-gremlin-1 antibody-Ab7326 mlgG1-APP.4405.IgG.mFc-Lot number-PB 4682 • Vehicle-Phosphate Buffered Saline pH 7.4 (provided by the Beatson Institute) • Gemcitabine-(provided by the Beatson Institute, purchased from LC Labs, Woburn, MA, USA) in Phosphate Buffered Saline pH 7.4. • Genetically Modified Mice • LSL-Kras^G12D/+; Trp53^R172H/+; Pdx1-Cre (KPC) mice have been described previously (Hingorani et al., 2005). Mice were generated by crossing mice bearing Pdx1-Cre, and conditional LSL-KrasG12D or LSL-Trp53R172H alleles (strains 01XJ6 and 01XL9, Mouse Models of Human Cancer Consortium [MMHCC], NCI-Frederick, Frederick, MD, USA). Mice on a mixed background were bred in-house at the CRUK Beatson Institute and maintained in conventional caging with environmental enrichment, access to standard chow and water ad libitum. Genotyping was performed by Transnetyx (Cordoba, TN, USA). Mice of both sexes were recruited onto study. All animal experiments were performed under a UK Home Office licence and approved by the University of Glasgow Animal Welfare and Ethical Review Board.
Mice were monitored 3 times weekly until a diagnosis of pancreatic cancer was made by abdominal palpation and confirmed by ultrasound imaging. […] Mice were monitored daily and sacrificed when reaching ethical endpoint (symptoms include abdominal distension, cachexia, intermittent hunching or reduced mobility, piloerection, mild diarrhoea, anaemia). […]
Next, the efficacy of gremlin-1 inhibition as a potential therapeutic approach for pancreatic cancer was tested in the KPC model. […] A cohort of KPC mice was established and mice were monitored until they developed pancreatic cancer detectable by palpation.
Mice were monitored at least weekly by palpation until pancreatic tumours were detectable. […] Mice remained on study and were closely monitored until ethical endpoint was reached, at which time they were sacrificed as per institutional guidelines.

B1: Ab7326 mlgG1: Anti-gremlin-1 antibody Ab7326 in mouse IgG1 format, Lot number PB 4682; allosteric inhibitory antibody (antibody)
heavy: QVQLVESGAEVKKPGATVKISCKVSGYTFTDYYMHWVQQAPGKGLEWMGLVDPEDGETIYAEKFQGRVTITADTSTDTAYMELSSLRSEDTAVYYCATDARGSGSYYPNHFDYWGQGTLVTVSSASTKGPSVFPLAPSSKSTSGGTAALGCLVKDYFPEPVTVSWNSGALTSGVHTFPAVLQSSGLYSLSSVVTVPSSSLGTQTYICNVNHKPSNTKVDKKVEPKSC
light: DIVMTQSPDSLAVSLGERATINCKSSQSVLYSSNNKNYLAWYQQKPGQPPKLLIYWASTRESGVPDRFSGSGSGTDFTLTINSLQAEDVAVYFCQQYYDTPTFGQGTRLEIKRTVAAPSVFIFPPSDEQLKSGTASVVCLLNNFYPREAKVQWKVDNALQSGNSQESVTEQDSKDSTYSLSSTLTLSKADYEKHKVYACEVTHQGLSSPVTKSFNRGEC
Median (days) survival (KPC mice, survival from start of treatment, dosing twice weekly (Ab7326 mlgG1 30 mg/kg s.c.; gemcitabine 100 mg/kg i.p.)): 26 days | safety in KPC mice (as a single agent and in combination with gemcitabine): can be given safely | Days on Rx (individual mice) (one value per KPC mouse, * denotes smaller than average tumour at start of treatment): 24 days and 13 days and 9 days and 26 days and 85 days and 12 days and 33 days
